Measurements: paper PMC6919601, “Identification of Plasmodium dipeptidyl aminopeptidase allosteric inhibitors by high throughput screening” (PLoS ONE, 2019)
The whole screen tested about 110,000 compounds, of which about 230 (0.21%) showed an effect of 50% or more. This is one part of the list.

molecular target: DPAP1 (Plasmodium falciparum, UniProt Q8IIJ9); assay: primary screen, percent inhibition; read by cleavage of a fluorogenic dipeptide substrate; higher = more effect of the substance; parameters: species or system P. falciparum D10 trophozoite lysates; single well
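Also: 30 min substrate incubation versus DMSO and 10 µM JCP410 controls.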

Sequence of DPAP1 (Q8IIJ9 whole entry, looked up): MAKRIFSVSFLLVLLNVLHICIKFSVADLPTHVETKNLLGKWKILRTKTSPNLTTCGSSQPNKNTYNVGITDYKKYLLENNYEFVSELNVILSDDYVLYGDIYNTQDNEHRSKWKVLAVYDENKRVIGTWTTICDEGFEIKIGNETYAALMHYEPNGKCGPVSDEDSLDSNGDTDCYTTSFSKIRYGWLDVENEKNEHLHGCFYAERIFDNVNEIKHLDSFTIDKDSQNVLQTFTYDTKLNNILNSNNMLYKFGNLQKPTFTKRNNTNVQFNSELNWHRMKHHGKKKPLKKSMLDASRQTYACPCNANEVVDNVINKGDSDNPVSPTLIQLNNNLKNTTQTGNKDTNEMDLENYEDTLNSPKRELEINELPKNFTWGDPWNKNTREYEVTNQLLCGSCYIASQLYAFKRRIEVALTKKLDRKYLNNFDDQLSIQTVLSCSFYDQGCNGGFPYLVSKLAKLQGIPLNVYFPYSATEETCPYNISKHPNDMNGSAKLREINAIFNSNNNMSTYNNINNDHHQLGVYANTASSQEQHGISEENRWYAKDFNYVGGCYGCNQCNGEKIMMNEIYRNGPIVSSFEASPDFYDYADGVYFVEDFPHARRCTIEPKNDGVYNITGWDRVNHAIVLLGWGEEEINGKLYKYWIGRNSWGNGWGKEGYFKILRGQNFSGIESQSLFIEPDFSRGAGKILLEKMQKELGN

Going from `CNc1nc(Cl)nc(NC(C)(C)C)n1` to `O=C(Nc1nc(-c2ccc(Cl)c(Cl)c2)cs1)c1cnccn1`, the “% Inhibition @ 10 uM” value falls from 0.968% to -3.33%.

Compared with `CCN1CCN(CC2CCCCC2)CC1`, `CC1CCC(N2CCCC(O)C2)CC1` (centres unmarked) is higher in “% Inhibition @ 10 uM” value: -5.94% for the first, -1.81% for the second.

Going from `O=C(Cc1ccccc1)n1nc(-c2ccco2)nc1SCc1ccccc1` to `Cc1ccc2occ(CC(=O)N(Cc3ccccc3)Cc3ccco3)c2c1`, the “% Inhibition @ 10 uM” value falls from 4.08% to -4.19%.

First: CN(C)CC(=O)N1c2ccccc2CCc2ccc(N)cc21
Second: CC(=O)n1c(C)c(-c2ccccc2)c2cc(Cl)ccc21
The “% Inhibition @ 10 uM” value of the first is higher: -0.736% for the first, -3.77% for the second.

First: Cc1ccc(Cn2c(=O)c3ccccc3n3c(CCC(=O)O)nnc23)cc1
Second: Cc1ccc(/C(O)=C/C=N/C(Cc2c[nH]c3ccccc23)C(=O)O)cc1 (centres unmarked)
The “% Inhibition @ 10 uM” value of the first is lower: -2.42% for the first, 4.3% for the second.

First: COc1ccccc1NC(=O)c1c(NCc2cccnc2)sc2c1CCC(C)C2 (centres unmarked)
Second: O=C(NCc1cccnc1)Nc1ccccc1Cl
The “% Inhibition @ 10 uM” value of the first is higher: -1.68% for the first, -10.9% for the second.

Compared with `COc1ccc(C2C3=C(O)CCCC3=NC(C)=C2C(=O)Nc2cccc(C(F)(F)F)c2)c(OC)c1` (centres unmarked), `COc1ccc(-c2cc(C(=O)NCC3CCCO3)c3ccccc3n2)c(OC)c1` (centres unmarked) is lower in “% Inhibition @ 10 uM” value: 2.38% for the first, -4.77% for the second.

Compared with `CC1=C(C#N)C(Nc2ccc(Cl)cn2)(C(F)(F)F)C(=O)N1` (centres unmarked), `CC(C)Cn1c2c(c(=O)[nH]c1=O)C(NS(=O)(=O)c1ccc(Cl)cc1)(C(F)(F)F)C(=O)N2` (centres unmarked) is higher in “% Inhibition @ 10 uM” value: -3.33% for the first, 0.561% for the second.

Going from `O=C(COCc1cc(-c2ccc3c(c2)OCO3)on1)N1CCC2(CC1)OCCO2` to `Nc1c(C(=O)Nc2cccc(F)c2)sc2nc(-c3ccc4c(c3)OCO4)ccc12`, the “% Inhibition @ 10 uM” value falls from 6.04% to -1.57%.

Compared with `OC1CCN(Cc2cccc(Cl)c2Cl)CC1`, `Oc1c2nc3ccccc3c-2ncn1CCN1CCC(Cc2ccccc2)CC1` is higher in “% Inhibition @ 10 uM” value: -0.969% for the first, 3.24% for the second.

Going from `CCn1c(C(C)N2CCCCC2)nc2ccccc21` (centres unmarked) to `O=C(CCN1C(=O)c2ccccc2C1=O)N1CCCCC1`, the “% Inhibition @ 10 uM” value rises from -3.08% to 3.65%.

Going from `CCOc1cc(/C=C2\S/C(=N/c3ccc(C(=O)O)cc3)N(C)C2=O)ccc1O` to `COc1cc(/C=C2/C(=N)N3OC(C)=CC3=NC2=O)ccc1OCCCOc1ccccc1`, the “% Inhibition @ 10 uM” value falls from 2.22% to -3.23%.

Going from `CCOC(=O)c1[nH]c2ccccc2c1NC(=O)C(C)(C)Oc1ccc(Cl)cc1` to `Cc1ccc(/C=C(\NC(=O)c2ccccc2)C(=O)Nc2cccc(Cl)c2C)o1`, the “% Inhibition @ 10 uM” value rises from 3.49% to 4.09%.

Going from `CN1C/C(=C\c2ccc3nccnc3c2)C(=O)/C(=C/c2ccc3nccnc3c2)C1` to `COc1cccc(-c2coc3cc4oc(=O)ccc4cc23)c1`, the “% Inhibition @ 10 uM” value falls from 0.287% to -1.37%.

First: CCNC(=O)NS(=O)(=O)c1cnccc1Nc1cccc(Cl)c1
Second: COc1cccc(NC(=O)CSc2ccccn2)c1
The “% Inhibition @ 10 uM” value of the first is higher: -0.116% for the first, -5.34% for the second.

First: COc1cc(-c2nc3s/c(=C\c4cccs4)c(=O)n3n2)cc(OC)c1OC
Second: COc1ccc(CNC(=O)CCN2C(=O)c3ccncc3C2=O)cc1OC
The “% Inhibition @ 10 uM” value of the first is higher: 6.96% for the first, 4.61% for the second.

Going from `Cc1sc(NC(=O)c2cc3cc(Br)ccc3oc2=O)nc1-c1cccs1` to `NC(=O)/C(=C/c1ccccc1)NC(=O)c1ccc(Br)o1`, the “% Inhibition @ 10 uM” value rises from -4.18% to 12.2%.

Compared with `O=C(NCc1ccco1)c1cccc2c1C(=O)N(CC1CCCO1)C2` (centres unmarked), `CN(CC(=O)NCc1ccco1)c1nnc(N2CCCC2=O)s1` is lower in “% Inhibition @ 10 uM” value: 5.13% for the first, -0.698% for the second.

First: O=C1Cc2ccccc2C1=C1Cc2ccccc2C1
Second: Nc1c(C(=S)Nc2ccccc2)c(=O)nc2ccccn12
The “% Inhibition @ 10 uM” value of the first is lower: -4.68% for the first, -3.65% for the second.

Compared with `CCOC(=O)c1c(C)[nH]c(C)c1S(=O)(=O)NCC(C)c1ccccc1` (centres unmarked), `COc1ccccc1NC(=O)C(=O)NCC(C)C` is higher in “% Inhibition @ 10 uM” value: -4.78% for the first, -1.5% for the second.

Going from `Cc1cc(C)c2nc(N3CCCC(C(=O)NCc4ccc(F)cc4)C3)sc2c1` (centres unmarked) to `COc1ccc(N2CCN(C(=O)c3ccc(CNS(=O)(=O)c4cccc(OC)c4)cc3)CC2)cc1`, the “% Inhibition @ 10 uM” value falls from 7.91% to -7.25%.

Going from `Oc1cccc(/C=N/c2c(-c3ccco3)nc3ccccn23)c1` to `Cc1cccc(C)c1NC(=O)/C=C/c1ccc(C(C)C)cc1`, the “% Inhibition @ 10 uM” value falls from 14.3% to -3.87%.

First: COc1cccc([C@H]2NCC[C@@]3(O)CCCC[C@H]23)c1O
Second: COc1cc2oc(=O)c(CC(=O)N3CCCC3)c(C)c2cc1Cl
The “% Inhibition @ 10 uM” value of the first is higher: 1.66% for the first, -0.808% for the second.

Compared with `COc1ccc(-c2noc(N3CCC(C(=O)N4CC(C)CC(C)C4)CC3)n2)cc1` (centres unmarked), `CCCCC(=O)C1=C(N2CCCC2)CC(C)(C)CC1=O` is lower in “% Inhibition @ 10 uM” value: 1.07% for the first, -1.64% for the second.

First: CCCCN(CCCC)CCNC(=O)c1ccc(CNS(=O)(=O)c2ccc(C)cc2)cc1
Second: COC(=O)C1=C(C)NC(=O)CC1c1cc([N+](=O)[O-])ccc1Cl (centres unmarked)
The “% Inhibition @ 10 uM” value of the first is higher: 1.69% for the first, -2.18% for the second.
